Assay results taken from the supplement of paper PMC4604168 (melanoma cell lines).
Some of the results follow. Single values are uncertain, as repeats are few or missing.

Experiments:
Test in all cases: cell count relative to DMSO control; melanoma cells; higher = more viable cells
Conditions in all cases: library dose: standard library concentration; 72 h
501Mel = tested on: 501Mel
A101D = tested on: A101D
A2058 = tested on: A2058
A375 = tested on: A375
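Further: cells treated in 1,536-well plates, then fixed and DAPI-stained, with nuclei counted from automated high-throughput microscope images.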

Structure (SMILES)	cell count (501Mel) [%]	cell count (A101D) [%]	cell count (A2058) [%]	cell count (A375) [%]
CS(=O)(=O)CCNCc1ccc(-c2ccc3ncnc(Nc4ccc(OCc5cccc(F)c5)c(Cl)c4)c3c2)o1 [lapatinib] + COC(=O)c1sccc1S(=O)(=O)Nc1ccc(Nc2ccccc2)cc1OC [GSK0660] (first compound 4 µM, partner dose 5 µM)	83.5	94.6	91.4	128
C[C@@H](Oc1cc(-c2cnn(C3CCNCC3)c2)cnc1N)c1c(Cl)ccc(F)c1Cl [Crizotinib] + CCc1ccc(CCOc2ccc(CC3SC(=O)NC3=O)cc2)nc1 [pioglitazone] (first compound 1 µM, partner dose 10 µM)	115	81.3	81.7	104
CN1CCN(c2ccc3nc(-c4c(N)c5c(F)cccc5[nH]c4=O)[nH]c3c2)CC1 [Dovitinib] + O=C(Nc1ccccc1)c1cc([N+](=O)[O-])ccc1Cl [GW9662] (first compound 0.5 µM, partner dose 10 µM)	68	55.7	30.5	87.5
C[C@@H](Oc1cc(-c2cnn(C3CCNCC3)c2)cnc1N)c1c(Cl)ccc(F)c1Cl [Crizotinib] + COc1cc(N2CCC(N3CCN(C)CC3)CC2)ccc1Nc1ncc(Cl)c(Nc2ccccc2S(=O)(=O)C(C)C)n1 [NVP-TAE684] (first compound 1 µM, partner dose 0.4 µM)	73.5	75.3	60.5	94.5
C=CCNC1=C2C[C@@H](C)C[C@H](OC)[C@H](O)[C@@H](C)/C=C(\C)[C@H](OC(N)=O)[C@@H](OC)/C=C\C=C(/C)C(=O)NC(=CC1=O)C2=O [Tanespimycin] + N#Cc1c(O)c2c(-c3ccc(-c4ccccc4O)cc3)csc2[nH]c1=O [A769662] (first compound 0.01 µM, partner dose 10 µM)	91.8	73.8	90.4	125
C=CCNC1=C2C[C@@H](C)C[C@H](OC)[C@H](O)[C@@H](C)/C=C(\C)[C@H](OC(N)=O)[C@@H](OC)/C=C\C=C(/C)C(=O)NC(=CC1=O)C2=O [Tanespimycin] + COc1ccc(COc2ccc(Cc3cnc(N)nc3N)cc2OC)cc1 [GW2580] (first compound 0.01 µM, partner dose 5 µM)	90.3	87.8	107	95.6
CN1CCN(c2ccc3nc(-c4c(N)c5c(F)cccc5[nH]c4=O)[nH]c3c2)CC1 [Dovitinib] + CCCCCCCCCCCC1=C(O)C(=O)C=C(O)C1=O [Embelin] (first compound 0.5 µM, partner dose 6 µM)	43.4	51.4	38.4	62.3
CS(=O)(=O)CCNCc1ccc(-c2ccc3ncnc(Nc4ccc(OCc5cccc(F)c5)c(Cl)c4)c3c2)o1 [lapatinib] + COc1ccc(COc2ccc(Cc3cnc(N)nc3N)cc2OC)cc1 [GW2580] (first compound 4 µM, partner dose 5 µM)	37.9	72.7	79.3	126
C[C@@H](Oc1cc(-c2cnn(C3CCNCC3)c2)cnc1N)c1c(Cl)ccc(F)c1Cl [Crizotinib] + COc1ccc(COc2ccc(Cc3cnc(N)nc3N)cc2OC)cc1 [GW2580] (first compound 1 µM, partner dose 5 µM)	77	76.7	57.4	99.5
CN1CCN(c2ccc3nc(-c4c(N)c5c(F)cccc5[nH]c4=O)[nH]c3c2)CC1 [Dovitinib] + Cn1cc(/C=C2\C(=O)Nc3cccnc32)c2ccccc21 [GW441756] (first compound 0.5 µM, partner dose 2 µM)	71.6	63.5	33.5	82
CS(=O)(=O)CCNCc1ccc(-c2ccc3ncnc(Nc4ccc(OCc5cccc(F)c5)c(Cl)c4)c3c2)o1 [lapatinib] + O=C(O)C(=O)Nc1sc2c(c1C(=O)O)CCNC2 [TCS401] (first compound 4 µM, partner dose 8.33333 µM)	84	142	83.1	192
CS(=O)(=O)CCNCc1ccc(-c2ccc3ncnc(Nc4ccc(OCc5cccc(F)c5)c(Cl)c4)c3c2)o1 [lapatinib] + Oc1nc(-c2ccc(C(F)(F)F)cc2)nc2c1CSCC2 [XAV939] (first compound 4 µM, partner dose 10 µM)	89.8	73.5	84.1	124
C=CCNC1=C2C[C@@H](C)C[C@H](OC)[C@H](O)[C@@H](C)/C=C(\C)[C@H](OC(N)=O)[C@@H](OC)/C=C\C=C(/C)C(=O)NC(=CC1=O)C2=O [Tanespimycin] + O=C(Nc1ccccc1)c1cc([N+](=O)[O-])ccc1Cl [GW9662] (first compound 0.01 µM, partner dose 10 µM)	68.9	72.5	71.1	118
